Assay results published in the supplement of paper PMC10126150.
Sequences with one replicate were seen in a single cluster, so their values are uncertain.

tested on: ATP; experiment: switch fluorescence ratio, 500 uM ATP over buffer (Cy3 cluster intensity, sum of 5 cycles each) (fold (ratio)); higher = stronger signal-on switching upon ATP binding; sequences stand for … in TCGTCGGCAGCGTCAGATGTGTATAAGAGACAGTTTTTTTTTTTTTTTTTTTTTTTTT…TC; conditions: aptamer strand: ATP DNA aptamer (quencher-CACCTGGGGGAGTATTGCGGAGGAAGG + anchor), 100 nM annealed; ATP concentration: 500 uM; one replicate
How it was run: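 Switching-strand clusters labelled with Cy3 on a modified Illumina MiSeq flow-cell were annealed to 100 nM quencher-labelled ATP aptamer, imaged in selection buffer, and re-imaged after 15 min with 500 uM ATP at 22 °C. This was done over five cycles with NaOH stripping and re-annealing in between. The fluorescence ratio is summed target-cycle over summed buffer-cycle Cy3 intensity per cluster, averaged per switch-domain sequence, excluding clusters outside 100-1000 RFU.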
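Also: ATP exposure 15 min at 22 °C before imaging.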

Row | Sequence | switch fluorescence ratio
1 | ATTGTTCTCT | 1.03
2 | ATTGTTGATT | 1.04
3 | ATTGTTGGAG | 0.974
4 | ATTTAACTAA | 0.995
5 | ATTTACCGAG | 1.12
6 | ATTTAGTAGC | 1.01
7 | ATTTATAGTC | 1
8 | ATTTATCGTT | 0.979
9 | ATTTATTCG | 0.935
10 | ATTTATTTAC | 1.1
11 | ATTTCAAGTA | 0.997
12 | ATTTCAGACC | 1.07
13 | ATTTCATTCT | 1
14 | ATTTCGGCGC | 0.996
15 | ATTTCGGGCC | 1.02
16 | ATTTCGTGTC | 1.02
17 | ATTTCGTTGA | 1
18 | ATTTCTAAAC | 0.985
19 | ATTTCTCCTA | 1.03
20 | ATTTCTGGGC | 0.971
21 | ATTTCTGTTC | 1.02
22 | ATTTGAAAGC | 1.05
23 | ATTTGAATAT | 1.01
24 | ATTTGACGTC | 1
25 | ATTTGAGCCT | 1.07

Row | Sequence | switch fluorescence ratio
26 | ATTTGATAAG | 0.963
27 | ATTTGCAGAT | 1.03
28 | ATTTGCCTCG | 1.05
29 | ATTTGGAGAG | 0.961
30 | ATTTGGCTCA | 0.998
31 | ATTTGGGGA | 0.975
32 | ATTTGGTACA | 0.989
33 | ATTTGTCT | 1.03
34 | ATTTGTTTGG | 0.973
35 | ATTTTAAGAA | 0.998
36 | ATTTTCACGA | 1.01
37 | ATTTTGACAT | 0.996
38 | ATTTTGCAGT | 1.01
39 | ATTTTGGTCA | 0.984
40 | ATTTTGTTAC | 1.03
41 | ATTTTTATCT | 0.957
42 | ATTTTTCAGG | 0.988
43 | ATTTTTGAAA | 0.969
44 | ATTTTTGGAA | 0.997
45 | ATTTTTGGAT | 0.979
46 | ATTTTTTCTA | 1.03
47 | CAAAAAGGCA | 1.04
48 | CAAAACAGAA | 0.991
49 | CAAAACATGG | 1.04
50 | CAAAACTCGC | 0.918

Row | Sequence | switch fluorescence ratio
51 | CAAAAGCCCG | 1.02
52 | CAAACAACCG | 1.04
53 | CAAACAACGA | 1.19
54 | CAAACGAATG | 1
55 | CAAAGAAACT | 1.05
56 | CAAAGAATAC | 1.24
57 | CAAAGACGAC | 1.2
58 | CAAAGGTGAA | 1.08
59 | CAAAGTCGCT | 1.04
60 | CAAATCAGTT | 0.945
61 | CAAATCCATG | 0.968
62 | CAAATCCCAG | 1.04
63 | CAAATCGCCA | 1.01
64 | CAAATCGTGT | 0.968
65 | CAAATCTACG | 1.05
66 | CAAATGCTGT | 1.01
67 | CAAATGGGCA | 0.977
68 | CAAATTCTTA | 1.02
69 | CAAATTGAGT | 1.03
70 | CAAATTGGCG | 1.16
71 | CAACACTATT | 1
72 | CAACAGGTT | 1.06
73 | CAACCACATT | 1.03
74 | CAACCAGTTG | 1.15
75 | CAACCATAGT | 1.13

Row | Sequence | switch fluorescence ratio
76 | CAACCCCGTA | 1.02
77 | CAACCGACGA | 1.9
78 | CAACCGGCAA | 6.15
79 | CAACGAAAAA | 1.03
80 | CAACGAAGGA | 1
81 | CAACGACTG | 1.07
82 | CAACGAGCGG | 0.964
83 | CAACGCCTTT | 0.993
84 | CAACGGGCGT | 1.04
85 | CAACGGGCTG | 0.939
86 | CAACGTACCT | 1.63
87 | CAACGTATCC | 1.01
88 | CAACTAATGT | 0.963
89 | CAACTCAAT | 1.12
90 | CAACTCAGTG | 1
91 | CAACTGAGTC | 1.08
92 | CAACTTCAGT | 1.01
93 | CAAGAACGCT | 1
94 | CAAGAATGAT | 0.983
95 | CAAGAGAGTT | 0.999
96 | CAAGAGCGAG | 1.04
97 | CAAGAGGTAA | 0.994
98 | CAAGATGCGG | 1.01
99 | CAAGCAGGAT | 1.08
100 | CAAGCAGGTA | 1.02

Row | Sequence | switch fluorescence ratio
101 | CAAGCCACAA | 1.12
102 | CAAGCTAGAC | 3.64
103 | CAAGCTATGT | 0.959
104 | CAAGCTCGAG | 1.01
105 | CAAGGAAATA | 0.952
106 | CAAGGAACAT | 0.988
107 | CAAGGAAGAA | 1.04
108 | CAAGGAGACA | 1.01
109 | CAAGGAGGAG | 1
110 | CAAGGCAACG | 0.966
111 | CAAGGCACAT | 1.02
112 | CAAGGGCAGC | 1.04
113 | CAAGGGCCAC | 0.983
114 | CAAGGGCGTT | 0.984
115 | CAAGGTAAGA | 1.03
116 | CAAGGTGTTG | 1.02
117 | CAAGTAAGCA | 1.03
118 | CAAGTAGAAG | 0.994
119 | CAAGTGCTGG | 0.979
120 | CAAGTGGAGA | 1.01
121 | CAAGTGTGTA | 0.993
122 | CAAGTGTTA | 0.956
123 | CAAGTTGCAC | 1
124 | CAATAAAAGG | 1
125 | CAATAAGGGC | 0.957

Row | Sequence | switch fluorescence ratio
126 | CAATAATCTG | 1.03
127 | CAATAATTTT | 1.02
128 | CAATACAGCA | 1.22
129 | CAATACTAGT | 1.02
130 | CAATAGAGCG | 1.01
131 | CAATAGCTGT | 1
132 | CAATAGGGGT | 1.01
133 | CAATAGTAAG | 1.03
134 | CAATATACCA | 1
135 | CAATCACATC | 1.07
136 | CAATCACGCA | 1.19
137 | CAATCCAGGA | 1.02
138 | CAATCCCAGC | 1.08
139 | CAATCCTCGT | 0.973
140 | CAATCGCATG | 1.21
141 | CAATCGCTTA | 1.24
142 | CAATCTACCG | 1.07
143 | CAATCTAGTG | 1.02
144 | CAATGAAGCG | 1.05
145 | CAATGCAAGG | 1.11
146 | CAATGCGGT | 1.03
147 | CAATGGGATT | 1.02
148 | CAATGTCGAG | 0.998
149 | CAATGTCGT | 0.98
150 | CAATGTGCGC | 0.957

Row | Sequence | switch fluorescence ratio
151 | CAATGTTAGT | 1.01
152 | CAATTAGTTT | 0.969
153 | CAATTGCTAA | 1.03
154 | CAATTGCTCA | 1.02
155 | CAATTGGACG | 1
156 | CAATTGTTAG | 1.09
157 | CAATTTATG | 1
158 | CAATTTCATA | 1.02
159 | CAATTTTAGT | 0.977
160 | CACAACACAC | 1.41
161 | CACAAGAGTG | 1.01
162 | CACAAGATCG | 1.01
163 | CACAATAGGA | 1.1
164 | CACAATGGTT | 1.05
165 | CACACACTCG | 1.32
166 | CACACTTGAC | 1.04
167 | CACAGACGTG | 1.06
168 | CACAGCGCCA | 1.01
169 | CACAGGAAGA | 1.05
170 | CACAGGAGGC | 1.08
171 | CACAGTATCA | 1.07
172 | CACAGTATTT | 1.07
173 | CACATACAAC | 1.3
174 | CACATACGAC | 1.46
175 | CACATCAGAG | 1.03

Row | Sequence | switch fluorescence ratio
176 | CACATGGGGT | 1.04
177 | CACATTAGTT | 1.07
178 | CACCAATTGC | 1.28
179 | CACCACAGAA | 1.05
180 | CACCACAGAT | 1.05
181 | CACCAGTCCC | 1.03
182 | CACCATGTCT | 1
183 | CACCCAATAT | 3.49
184 | CACCCCGATT | 1.06
185 | CACCCTTCGA | 1.07
186 | CACCGGTTTT | 1.02
187 | CACCTACTT | 1.35
188 | CACCTGACCT | 1.4
189 | CACCTGATTT | 1
190 | CACGAATTG | 0.989
191 | CACGAATTGC | 1.1
192 | CACGAGACGG | 1.16
193 | CACGAGGTGG | 1.16
194 | CACGAGTCTG | 1.04
195 | CACGAGTGCG | 1
196 | CACGATAAAA | 1.04
197 | CACGATCTCA | 1.01
198 | CACGATTCTA | 1.01
199 | CACGCAAGAG | 5.25
200 | CACGCACTGT | 1.64
